Reference: PubChem BioAssay AID686970 (National Center for Advancing Translational Sciences (NCATS), 2013)
About 6,000 (1.7%) of roughly 360,000 compounds were called active. Inconclusive means that the source gave no clear call. Such entries were picked first, then a sample of the others. The call rests on the fitted dose curve; in most records, active means well fitted cell-killing curve with a large enough effect; inconclusive means small, poorly fitted or top-dose-only effect, or effect the other way; inactive means flat fitted curve, though single readings scatter. Potencies of inconclusive entries are left out as doubtful fits.

experiment: qHTS for induction of synthetic lethality in tumor cells producing 2HG: qHTS for the HT-1080-NT fibrosarcoma cell line; conditions: HT-1080-NT fibrosarcoma viability, CellTiter-Glo ATP luminescence, 48 h; activity, negative = less viability: at 46.1 µM (top of the series) unless noted;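 further: NT is the 2HG producing partner of a matched IDH1 knockdown line; nearly all actives have a fitted effect of over 55% in size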;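 on activity, negative = less viability: 0% = DMSO-treated cells and -100% = media-only wells without cells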
Summary of the method: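 HT-1080-NT; 750 cells/well; 5% FBS RPMI; 48 h compound, 37 degrees C; CellTiter-Glo luminescence; curve fitting and curve-class assignment.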
Potency means the concentration at half of the fitted maximal effect; tags describe the fitted curve by direction and shape.

Structure (SMILES)	Potency	activity, negative = less viability
Clc1ccc(-c2c[n+](Cc3ccc(Br)cc3)c3n2CCCCC3)cc1	inconclusive [cytotoxic, partial curve]	
NC(Cc1ccc(C(F)(F)F)cc1)c1csc(Nc2nccc(C(F)(F)F)n2)n1 (stereo unspecified)	inconclusive [cytotoxic, single point]	
Cc1ccccc1C(=O)O/N=C(\N)Cc1cccs1	inconclusive [cytotoxic, single point]	
COc1ccccc1N=c1oc2cc(O)ccc2cc1C(N)=O	active: 23.1 µM	
COC(=O)c1ccc(NC(=O)CCCN2C(=O)NC(C)(C)C2=O)cc1	inconclusive [cytotoxic, single point]	
Fc1cccc(Cc2c(-c3ccccc3)nc3ccc(Cl)cn23)c1	inconclusive [cytotoxic, single point]	
CC(=O)NC(c1ccc(Cl)cc1)c1c(O)ccc2ccc(O)cc12 (stereo unspecified)	inconclusive [cytotoxic, single point]	
CN(C)CCNc1ncnc2sc(-c3ccccc3)cc12	inconclusive [cytotoxic, single point]	
Cc1cc2nnc(SCC(=O)NCc3ccco3)n2c2ccccc12	inconclusive [cytotoxic, partial curve]	
O=C(Nc1ccc(Cl)c(C(F)(F)F)c1)C1Cc2c(-c3ccccc3)ccnc2O1 (stereo unspecified)	inconclusive [cytotoxic, single point]	
O=C(/C=C/c1cccc([N+](=O)[O-])c1)c1ccc([N+](=O)[O-])o1	active: 5.8 µM	
COC1=CC(=O)C[C@@H](C)[C@]12Oc1c(Cl)c(OC)cc(OC)c1C2=O	inconclusive [cytotoxic, single point]	
Fc1ccc(-c2nc3n(n2)Cc2ccccc2-3)cc1	active: 25.9 µM	
S=C(NCCCc1ccccc1)Nc1ccc(Cl)cc1	inconclusive [cytotoxic, single point]	
Cc1ccc(NC(=O)/C(C#N)=C(\N)C(Cl)(Cl)Cl)nc1	inconclusive [cytotoxic, single point]	
Cc1ccc(S(=O)(=O)/N=C2/C=C(Sc3ncn[nH]3)C(=O)c3ccccc32)cc1	active: 18.4 µM	
CCOc1ccccc1-c1cc(-c2n[nH]c(=S)n2CC)c2ccccc2n1		inactive: -6.36%
COc1cccc(-c2nn[nH]n2)c1O		inactive: 13.9%
CCc1c(-c2ccc(OC)cc2)ncn1Cc1cccc(-c2ccccc2)c1	inconclusive [cytotoxic, single point]	
COc1ccc(NC(=O)c2ccc(S(=O)(=O)N(C)c3ccccc3)cc2)cc1S(=O)(=O)N1CCOCC1	inconclusive [cytotoxic, single point]	
Cn1c(=O)n(C)c2cc(S(=O)(=O)N3CCN(c4ccccc4)CC3)ccc21		inactive: 2.64%
S=C(Nc1ccc(Oc2ccccc2)cc1)NC1CCCCCC1	inconclusive [cytotoxic, single point]	
Cc1ccccc1CNS(=O)(=O)c1c(C(=O)N2CCCCC2)c(C)n(C)c1C		inactive: 1.61%
O=C(Nc1ccc(S(=O)(=O)N2CCCCC2)cc1)C1CC(=O)N(c2ccc(Cl)cc2)C1 (stereo unspecified)	inconclusive [cytotoxic, partial curve]	

Structure (SMILES)	Potency	activity, negative = less viability
Cc1cc(C)n2nc(SCc3cccc(S(=O)(=O)N(C)C)c3)nc2n1		inactive: 3.39%
COc1ccc(Cn2nnc3c(=O)[nH]c(C4CCN(S(=O)(=O)c5ccc(C)cc5)CC4)nc32)cc1	inconclusive [cytotoxic, single point]	
Oc1[nH]c2ccccc2c1N=Nc1ccccc1F	inconclusive [cytotoxic, partial curve, poor fit]	
O=S1(=O)[C@H]2C[C@@H]3C=C[C@@]2(CN1Cc1ccccc1F)O3	inconclusive [rising, single point]	
CN(C)C1=NCCN1CC1CCCC1		inactive: 7.36%
COc1ccccc1-c1cc(C(F)(F)F)nc(S(=O)(=O)CCCC(=O)NCc2ccc(F)cc2)n1	active: 9.2 µM	
O=C(Nc1ccc(Cl)cc1)ON=C1CCCC1	inconclusive [cytotoxic, partial curve]	
FC(F)(F)c1cc(-c2ccco2)nc(NCc2ccc(Cl)cc2)n1	inconclusive [cytotoxic, single point]	
Cc1ccc(NCCC(=O)c2cccc([N+](=O)[O-])c2)c(C)c1	inconclusive [cytotoxic, single point]	
COc1ccc(Cn2c(=O)[nH]c3cc(C(=O)NCCCN4CCCCCC4)ccc3c2=O)cc1	inconclusive [cytotoxic, single point]	
CCN(CC)CCC(=O)Nc1cccc2c1C(=O)c1ccccc1C2=O	active: 18.4 µM	
CN(NC(=O)c1ccccc1)c1nc2ccccc2nc1C(F)(F)F	inconclusive [cytotoxic, partial curve]	
O=c1c2ccccc2nc(SCc2ccc([N+](=O)[O-])cc2)n1CCCO	inconclusive [cytotoxic, single point]	
Cc1nc(NC(=O)CC(C)C)sc1-c1csc(Nc2ccc(Cl)cc2Cl)n1	inconclusive [cytotoxic, single point]	
COc1cc(C(=O)N/N=C(\C)c2ccc3c(c2)OCO3)cc(OC)c1OC	active: 2.06 µM	
CCOC(=O)Nc1cc2c(cc1[N+](=O)[O-])-c1ccccc1C2=O		inactive: 0.088%
CCOc1ccc2nc(NC3=NC(c4ccc(OC)cc4)CC(=O)N3)nc(C)c2c1 (stereo unspecified)	inconclusive [cytotoxic, single point]	
CCOC(=O)CSC1=NC(=O)/C(=C/c2ccc(OC)cc2)S1	inconclusive [cytotoxic, single point]	
COc1ccc(OC)c(C(=O)N/N=C/c2ccccn2)c1		inactive: 15.9%
COc1ccc(C(=O)N/N=C(/C)c2cccc(NC(=O)c3ccccc3F)c2)cc1		inactive: 3.91%
CC[C@@H]1C=C(C(=O)O)[C@H](c2ccc(C)cc2)N1S(=O)(=O)c1ccc(C)cc1		inactive: -11.2%
CN(Cc1ccccc1)c1ncnc2ccc(Br)cc12	inconclusive [cytotoxic, partial curve]	
CCOC(=O)C1CCN(C(=O)CC(C)S(=O)(=O)c2ccc3c(c2)NC(=O)CO3)CC1 (stereo unspecified)		inactive: -1.75%
C[S+](CC[C@H](N)C(=O)O)C[C@H]1O[C@@H](n2cnc3c(N)ncnc32)[C@H](O)[C@@H]1O (stereo partly specified)		inactive: -5.77%

Structure (SMILES)	Potency	activity, negative = less viability
C=CCN(c1ccccc1OC)S(=O)(=O)c1cccc(C(=O)NC2=NCCS2)c1		inactive: 1.51%
O=C(COc1ccccc1-c1ccccc1)NN=C1CCCC1	inconclusive [cytotoxic, partial curve]	
Oc1ccc(Br)cc1/C=N/N1CCN(Cc2cccc3ccccc23)CC1	inconclusive [rising, single point]	
COc1ccc(C(=O)c2oc3ccc(Br)cc3c2NC(C)=O)cc1	inconclusive [rising, single point]	
COc1ccc(-c2nc3cnccn3c2NC2CCCCC2)cc1-c1cccc(Cl)c1	active: 18.4 µM	
Cc1noc(C)c1COc1ccc(C(=O)OCC(N)=O)cc1		inactive: 21.6%
CC(=O)OCCN(C)c1cc(SC(C)C)c2nonc2c1[N+](=O)[O-]	inconclusive [cytotoxic, full curve, poor fit]	
O=c1c2c(nc3n1CCCCC3)-c1ccccc1CC21CCCC1	inconclusive [cytotoxic, single point]	
Cc1ccc2nc(-c3ccc4c(c3)OCCO4)cn2c1	active: 3.66 µM	
CCCCC(O)(c1ccc(CC)cc1)C(CN1CCOCC1)c1ccccc1 (stereo unspecified)	inconclusive [cytotoxic, single point]	
COC(=O)c1cnc(NC(=O)C2(C)CCCN(C(C)=O)C2)s1 (stereo unspecified)	inconclusive [rising, single point]	
COc1ccccc1C1C(C#N)=C(N)Oc2c1oc(CO)cc2=O (stereo unspecified)		inactive: 21%
CC(=O)Nc1cccc(NC(=O)CSc2nccn2Cc2ccccc2)c1	inconclusive [cytotoxic, single point]	
Cc1cc(C)n2ncc(C(=O)O)c2n1	inconclusive [rising, partial curve]	
COC(=O)c1ccccc1NC(=O)Cn1cnc2cc(C)c(C)cc21		inactive: 1.5%
Cc1ccnc(N2CCC(C(=O)NNC(=O)c3ccccc3)CC2)n1		inactive: 6.92%
CN1CCN(CCCNC(=O)c2ccc(/C=C3\Sc4ccccc4N(Cc4ccccc4F)C3=O)cc2)CC1	active: 23.1 µM	
O=C(Nc1ccc(S(=O)(=O)NC2=NCCCCC2)cc1)c1ccc(Cl)c([N+](=O)[O-])c1	inconclusive [cytotoxic, single point]	
O=C(CC1C(=O)CCCC1=O)c1ccccc1	inconclusive [cytotoxic, single point]	
Oc1ccc(-c2csc(Nc3ccccn3)n2)c(O)c1	inconclusive [cytotoxic, full curve]	
CCOC(=O)C1(CCOc2ccccc2)CCN(Cc2ccc(-n3cccn3)cc2)CC1	inconclusive [cytotoxic, single point]	
CCOC(=O)c1ccc(NC(=O)C2CCCN(S(=O)(=O)c3ccc(F)cc3)C2)cc1 (stereo unspecified)	inconclusive [cytotoxic, single point]	
O=C(c1ccc(CSc2nc3ccncc3[nH]2)cc1)N1CCCCCC1	inconclusive [cytotoxic, single point]	
